Data: PubChem BioAssay AID1346428 (National Center for Advancing Translational Sciences (NCATS), 2018)
About 1,200 (2.5%) of roughly 48,000 compounds were called active. Inconclusive results (about 2%) are left out.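 The calls were made as follows: active = activation of at least 60% and not above a set upper limit (about 1 call in 100 departs from these limits); inconclusive = activation of 40% to 60%, or above that upper limit; inactive = activation under 40%.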 The list shows a part of the results.

Each compound was assayed against Probable G-protein coupled receptor 32 (Homo sapiens) (UniProt O75388) (assay: qHTS for Agonists of Human Resolvin D1 Receptor DRV1). Settings: CHO-K1 GPR32 beta-arrestin PathHunter luminescence, 90 min; at 76.9 µM; hits give high values; zero percent set by DMSO-only wells.
UniProt O75388, sequence (O75388 whole entry, looked up): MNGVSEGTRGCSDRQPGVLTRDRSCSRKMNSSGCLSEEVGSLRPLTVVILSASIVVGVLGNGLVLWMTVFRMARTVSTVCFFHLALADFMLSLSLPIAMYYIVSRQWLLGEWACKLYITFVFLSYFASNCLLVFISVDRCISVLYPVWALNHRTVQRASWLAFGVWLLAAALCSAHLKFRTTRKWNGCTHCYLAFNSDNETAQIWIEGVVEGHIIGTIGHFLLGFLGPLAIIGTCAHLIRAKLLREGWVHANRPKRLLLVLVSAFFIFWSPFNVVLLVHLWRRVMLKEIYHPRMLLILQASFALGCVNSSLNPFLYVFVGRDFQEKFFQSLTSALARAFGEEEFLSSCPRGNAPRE
Outline: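 PathHunter beta-arrestin recruitment in CHO-K1 cells stably expressing ProLink-tagged GPR32. Cells were exposed to compound for 90 min at 37 C, then chemiluminescence was read after 1 h detection at ambient temperature; DMSO served as basal control.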
Also: 0% is about no effect.

activation, active:
CC(C)c1ccc2oc3nc(N)c(C(=O)O)cc3c(=O)c2c1 104%

activation, inactive:
COC(=O)CN1C(=O)C(C)(C)c2cc(S(=O)(=O)Nc3ccc(C(C)C)cc3)ccc21 30%, O=C(COc1ccc(Br)cc1)Nc1cccc2cccnc12 -23.4%, Cc1cn2c(=O)cc(COC(=O)C(C)Oc3ccccc3)nc2s1 (stereo not given) 9.98%, COc1cccc(NC(=O)c2oc3ccccc3c2NC(=O)Cc2cccc(C)c2)c1 -23.6%, CC(CCc1ccccc1)NCC(O)c1ccc(O)c(C(N)=O)c1 (stereo not given) -17.3%, COC(=O)c1ccc(Cl)cc1NC(=O)N1CCC(CN2CCC(C)CC2)CC1 -1.03%, CCc1cccc(NC(=O)c2coc(=O)c3ccccc23)c1 8.45%, O=C(NCc1ccc(Cl)cc1)c1cc(-c2ccc(F)cc2)on1 1.74%, CCc1ccc(-n2nc(CO)c(C(=O)NCCCCc3ccccc3)n2)cc1 -5.8%, Cc1ccccc1OCC(=O)N(Cc1ccc(C(C)C)cc1)C1CCS(=O)(=O)C1 (stereo not given) -37.3%, COc1ccccc1CNC(=O)c1cc(-c2ccccc2)n[nH]1 -2.69%, O=C(CCS(=O)(=O)c1nc(-c2cccs2)cc(C(F)(F)F)n1)Nc1cccc(O)c1 -47.4%, Cc1ccc(N2C(=O)C(CC(=O)Nc3ccccc3)N(CCC3=CCCCC3)C2=O)cc1 (stereo not given) 32.5%, O=C(NCCCN1CCN(c2cccc(Cl)c2)CC1)c1nnc(Cc2ccc(F)cc2Cl)o1 20.8%, Cc1ccc2nc(NC(=O)CSc3ncc(C(=O)Nc4ccccc4)c(=O)n3C)sc2c1 -6.22%, CCc1ccc(S(=O)(=O)c2cnc(SCC(=O)Nc3ccc(OC)cc3OC)[nH]c2=O)cc1 8.89%, CCCc1cc(=O)oc2cc(C)c3c(-c4ccccc4)c(C)oc3c12 -2.18%, CC(C)NC(=O)c1sc2ncccc2c1-n1cccc1 9.42%, CCOc1ccccc1NC(=O)CN1C(=O)C(=O)c2ccccc21 -73.1%, CCOc1ccccc1N(CC)C(=O)c1cc2ccc3cccnc3c2[nH]1 -14.3%, Cn1c2ccc(F)cc2c2nnc(SCCN3CCCCC3)nc21 33.9%, CCOc1ccc(CCNC(=O)c2sc3nc4n(c(=O)c3c2C)CCCC4)cc1 2.42%, Cc1sc2c(c1C)c(=O)n(Cc1ccccc1)c(=O)n2CC(=O)Nc1cccc(Cl)c1 6.19%, O=C(O)Cn1nc(N2CCN(c3ccccc3)CC2)ccc1=O 22.6%, CC1CCC(NC(=O)CCc2cn(Cc3ccc(F)cc3)c3ccccc23)CC1 (stereo not given) -26.4%, COc1ccc(NC(=O)c2nc(S(=O)(=O)Cc3ccc(C)cc3)ncc2Cl)cc1 -26.6%, Cc1ccccc1C(=O)NCc1ccc2c(c1)CCN2C(=O)c1ccc(F)cc1 -12.3%, CCOC(=O)Cn1cnc2c(cnn2-c2ccc(C)c(C)c2)c1=O 22.2%, Cc1nn2c(=O)cc(COC(=O)COc3ccccc3C)nc2s1 0%, Cc1cccc(CSCc2ccc(C(=O)NCCc3ccccc3)o2)c1 34.9%, O=C(c1cc2ccccc2oc1=O)N1CCN(c2ccc(F)cc2)CC1 8.02%, Cc1cc(C)c2c(CC(=O)Nc3ccc(S(=O)(=O)N4CCCCC4)cc3)coc2c1 -16.5%, COc1ccccc1CCNC(=O)Cc1c(C)c2cc3c(C)coc3cc2oc1=O -18.7%, NC(=O)c1cc[n+](CC2=C(C(=O)O)N3C(=O)[C@@H](NC(=O)[C@@H](c4ccccc4)S(=O)(=O)[O-])[C@H]3SC2)cc1 0.31%, CCCN(CCC)S(=O)(=O)c1ccc(C(=O)Nc2cccc(-c3nc4ccccc4[nH]3)c2)cc1 -13%, CC(=O)c1ccc(NC(=O)CN(C)S(=O)(=O)c2cc3c(cc2Cl)NC(=O)CO3)cc1 -2.87%, Nc1c(-c2nc(-c3ccccc3)no2)nnn1CC(=O)Nc1cccc(F)c1 -0.865%, CCOc1cc(-c2ccc(OC(=O)c3ccc(C)cc3)c(OC)c2)cc(=O)c2c(C)oc(C)c12 -19%, CCN(CC)CCN(C(=O)c1ccco1)c1nc2cc(C)cc(C)c2s1 20.3%, Cc1ccc(NCc2cccn2-c2nnc(N3CCC(C(=O)NCCC(C)C)CC3)s2)cc1 -11%, N#Cc1c(-n2ncnc2-c2ccccc2C(F)(F)F)sc2c1CCCCC2 -12.6%, CCOC(=O)c1ccc(Nc2c(-c3cccc(O)c3)nc3nc[nH]n23)cc1 -11.9%, COc1cc(NC(=O)CNS(=O)(=O)c2cccs2)cc(OC)c1OC -3.08%, COc1cccc(C2=NS(=O)(=O)N(C)C(C(=O)Nc3ccccc3SC)=C2)c1 -24.4%, CCOc1ccc(S(=O)(=O)NCCc2csc3nc(-c4ccc(F)cc4)nn23)cc1 37.7%, Cc1ccc(C)c(Cn2c(=O)n(Cc3ccccc3)c(=O)c3c2c2cc(C)ccc2n3C)c1 20.1%, CC1CCC(NC(=O)c2ccc(CS(=O)(=O)c3cccc(C(F)(F)F)c3)o2)CC1 (stereo not given) 13.1%, O=C(NCc1cccs1)c1ccc(CSc2nc3ccncc3n2Cc2ccccc2)cc1 0.485%, Cc1ccc(Cl)cc1N1CCN(CCCNC(=O)C2COc3ccccc3C2)CC1 (stereo not given) -2.48%, CCOC(=O)c1ccc(NC(=O)Cn2c(=O)cc(C(F)(F)F)c3c(C)nn(C)c32)cc1 -11.2%, Cc1ccc(C(=O)Nc2ccc(S(=O)(=O)Nc3onc(C)c3C)cc2)cc1 -4.89%, COc1ccc(CNC(=O)Cn2c(=O)cc(C)c3c(C)nn(-c4cccc(Cl)c4C)c32)cc1 0.105%, COc1ccc(-c2cc(C(=O)Nc3cccc(O)c3)on2)cc1OC -0.959%, Fc1ccc(CSc2nc(NCc3ccccc3)c3ccccc3n2)cc1 -35.9%
